{
  "source": "paper PMC3688683",
  "about": "“The N-Terminal Domains of Vps3 and Vps8 Are Critical for Localization and Function of the CORVET Tethering Complex on Endosomes” (PLoS ONE, 2013)",
  "assay_in_all_cases": "co-IP; small-scale TAP purification: C-terminally TAP-tagged Vps8 or Vps3 (full-length or truncated) captured from yeast lysate (50 mM HEPES/KOH pH 7.4, 300 mM NaCl, 0.15% NP-40, 2 mM MgCl2, 1 mM DTT) on IgG beads, 1.5 h at 4°C; eluted with glycine pH 2.5 or TEV protease; Western blot with anti-Cbp, anti-HA, anti-Vps11; also with overproduced Vps8ΔN and from vps21Δ and vps21Δ ypt52Δ ypt53Δ ypt7Δ strains",
  "key": {"[1]": {"biological_target": "T1, Vps8-TAP (full-length Vps8, C-terminal TAP tag) (yeast (genomic locus of BY4741/BY4733 strains)) (UniProt P39702)", "T1 sequence": "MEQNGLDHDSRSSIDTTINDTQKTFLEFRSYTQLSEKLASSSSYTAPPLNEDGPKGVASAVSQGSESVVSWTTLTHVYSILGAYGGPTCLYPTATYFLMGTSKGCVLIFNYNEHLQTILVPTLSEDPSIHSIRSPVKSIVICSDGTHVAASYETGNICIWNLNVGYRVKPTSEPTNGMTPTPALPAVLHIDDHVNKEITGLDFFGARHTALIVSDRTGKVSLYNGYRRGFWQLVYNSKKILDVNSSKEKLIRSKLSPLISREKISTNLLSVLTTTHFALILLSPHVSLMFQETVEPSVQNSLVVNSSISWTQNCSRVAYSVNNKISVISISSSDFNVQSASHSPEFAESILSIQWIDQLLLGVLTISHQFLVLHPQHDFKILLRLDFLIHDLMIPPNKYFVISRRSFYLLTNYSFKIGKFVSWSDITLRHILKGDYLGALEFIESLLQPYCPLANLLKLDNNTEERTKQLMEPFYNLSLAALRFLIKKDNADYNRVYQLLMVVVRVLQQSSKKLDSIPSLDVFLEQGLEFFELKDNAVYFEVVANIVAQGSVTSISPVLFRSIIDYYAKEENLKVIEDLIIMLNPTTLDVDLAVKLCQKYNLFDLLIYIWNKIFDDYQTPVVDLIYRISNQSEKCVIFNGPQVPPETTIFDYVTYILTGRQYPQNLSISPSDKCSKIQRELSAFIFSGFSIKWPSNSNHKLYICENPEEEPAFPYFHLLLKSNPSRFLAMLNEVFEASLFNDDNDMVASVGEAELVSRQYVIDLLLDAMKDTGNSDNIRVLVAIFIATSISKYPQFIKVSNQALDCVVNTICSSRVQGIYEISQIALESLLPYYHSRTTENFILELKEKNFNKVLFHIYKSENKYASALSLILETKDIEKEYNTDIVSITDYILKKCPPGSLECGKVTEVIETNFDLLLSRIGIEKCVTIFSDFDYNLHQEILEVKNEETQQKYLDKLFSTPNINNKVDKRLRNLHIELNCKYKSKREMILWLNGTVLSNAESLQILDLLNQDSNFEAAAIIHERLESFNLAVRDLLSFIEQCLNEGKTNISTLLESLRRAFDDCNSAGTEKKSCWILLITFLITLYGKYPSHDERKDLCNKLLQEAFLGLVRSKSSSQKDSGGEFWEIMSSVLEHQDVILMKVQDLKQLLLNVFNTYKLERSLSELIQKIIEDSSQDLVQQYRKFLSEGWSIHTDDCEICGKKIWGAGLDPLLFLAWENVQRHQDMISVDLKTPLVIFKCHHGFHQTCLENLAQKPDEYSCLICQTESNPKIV"}, "[2]": {"biological_target": "T2, Vps8ΔC-TAP (N-terminal domain of Vps8, up to residue 450, C-terminal TAP tag) (yeast (genomic locus of BY4733 strains)) (UniProt P39702)", "T2 sequence": "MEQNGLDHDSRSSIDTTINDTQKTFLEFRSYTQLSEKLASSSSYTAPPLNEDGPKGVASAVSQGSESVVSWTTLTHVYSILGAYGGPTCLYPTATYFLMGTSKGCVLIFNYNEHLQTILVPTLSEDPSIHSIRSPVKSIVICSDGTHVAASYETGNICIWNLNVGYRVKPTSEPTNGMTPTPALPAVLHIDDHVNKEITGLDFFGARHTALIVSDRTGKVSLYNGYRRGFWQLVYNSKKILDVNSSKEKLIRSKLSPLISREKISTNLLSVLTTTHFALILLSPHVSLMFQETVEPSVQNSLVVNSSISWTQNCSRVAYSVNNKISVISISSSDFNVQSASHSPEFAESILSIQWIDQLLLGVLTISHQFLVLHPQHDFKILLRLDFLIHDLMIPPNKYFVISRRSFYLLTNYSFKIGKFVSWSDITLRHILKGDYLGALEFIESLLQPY"}, "[3]": {"biological_target": "T3, Vps8ΔN-TAP (C-terminal domain of Vps8, from residue 451, C-terminal TAP tag) (yeast (genomic locus of BY4741/BY4733 strains)) (UniProt P39702)", "T3 sequence": "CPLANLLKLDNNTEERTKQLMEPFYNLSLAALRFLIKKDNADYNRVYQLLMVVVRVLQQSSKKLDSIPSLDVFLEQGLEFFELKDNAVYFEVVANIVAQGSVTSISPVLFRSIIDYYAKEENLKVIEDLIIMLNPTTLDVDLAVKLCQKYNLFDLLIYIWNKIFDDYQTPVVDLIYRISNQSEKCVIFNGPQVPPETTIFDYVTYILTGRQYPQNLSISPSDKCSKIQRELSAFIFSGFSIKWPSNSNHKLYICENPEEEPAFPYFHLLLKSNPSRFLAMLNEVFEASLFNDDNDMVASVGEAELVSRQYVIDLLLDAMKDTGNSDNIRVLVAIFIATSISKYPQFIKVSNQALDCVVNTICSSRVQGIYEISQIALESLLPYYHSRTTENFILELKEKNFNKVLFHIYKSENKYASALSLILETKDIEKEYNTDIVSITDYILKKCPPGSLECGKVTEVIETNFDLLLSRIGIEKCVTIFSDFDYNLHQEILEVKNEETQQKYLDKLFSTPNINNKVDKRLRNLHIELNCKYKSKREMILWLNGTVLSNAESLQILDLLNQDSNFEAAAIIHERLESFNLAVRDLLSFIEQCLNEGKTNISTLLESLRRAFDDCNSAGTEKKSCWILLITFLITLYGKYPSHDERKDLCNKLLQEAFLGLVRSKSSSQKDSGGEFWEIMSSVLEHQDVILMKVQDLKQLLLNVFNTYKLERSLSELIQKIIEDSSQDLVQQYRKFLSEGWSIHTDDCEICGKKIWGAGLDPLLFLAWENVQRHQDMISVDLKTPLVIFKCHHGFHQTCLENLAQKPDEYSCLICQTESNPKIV"}},
  "note": "No constants are given. Whether binding was seen depends on the method and setting. Binding seen in cells or lysates may run through a third protein. Some entries that bind do so weakly or less than the wild type. Tags and fused reporters may be left off the sequences shown.",
  "data": [
    {"binder": "Vps3-3HA (full-length Vps3, C-terminal 3xHA tag) (protein, UniProt P23643 1-1011) MVKKKTNNDKGKEVKENEGKLDIDSESSPHERENDKKKTEDDSLRATESEETNTHNANPNETVRADKFSQEESRPIEDSPHTDKNTAQESCQPSSAEDNVINTDITSLNEKTSTNDEQEKGLPLKISEGPFTISTLLDNVPSDLIYTCCEAYENHIFLGTTTGDLLHYFELERGNYMLVSQTKFDAESNSKIDKILLLPKVEGALILCDNELVLFILPEFAPRPNTTRLKGISDVVICNFSRSSKAYRIYAFHAEGVRLLKISADSLVLTKAFNFKLIDKACAHEETLMVSKLNSYELINLKSSQVIPLFRISETDEDLEPIITSFNEQSEFLVCSGGGSYDSGAMALVVNHHGDIIKGTIVLKNYPRNVIVEFPYIIAESAFQSVDIYSALPSEKSQLLQSITTSGSDLKISKSDNVFTNTNNSEEFKEKIFNKLRLEPLTHSDNKFRIERERAFVEESYEEKTSLIVYNNLGIHLLVPTPMVLRFTSCEESEIDNIEDQLKKLAKKDLTKFEHIEAKYLMSLLLFLMTLHYDHIEDEVMKKWCDFSDKVDIRILFYMFGWKVYSEIWCFHGLINIVERLKSLKLTNKCENILKMLLMMKNELKKKNKTGLLTNDFDDIMKTIDITLFKLRLEKKETITVDMFERESYDEIIREINLHDDKLPRIELLIEIYKEKGEYLKALNLLREAGDYISLVSFIEENLKKLPEDYIKERIADDLLLTLKQGDENTEECAIKKVLKILDMACINKNDFLNKIPAEETSLKVSFIEQLGVQNSNDSKFLFNYYLAKLREIINQSNIWSILGDFIKEYKDDFAYDKTDITNFIHIKLKHSLQCENFSKYYEKCENLKSENEKDDEFINFTFDEISKIDKEHILTLLFFPNELTNWVSSEELLKIYLSFNDFRSVEKYIGKQNLVAVMKQYLDISSLNYSVELVTNLLQRNFELLDDTDIQLKILETIPSVFPVQTISELLLKVLIKYQEKKEESNLRKCLLKNQISISDELSRNFDSQG", "values": [
      {"measurement": "binding", "setting": "[1]", "value": "binds"},
      {"measurement": "binding", "setting": "[2]", "value": "no binding"},
      {"measurement": "binding", "setting": "[3]", "value": "binds"}
    ]}
  ]
}
